The RNAGym collection of RNA variant scans (doi:10.7554/elife.90254)
Read counts are not given, so values of variants with three or more changes are uncertain.

B1: OR4K15 (parent)
chain: GUUAACGGUCAUAGGCCAUGGAAACUAGGAGCACCAUUUCGCUGCCAGUGAAGAAAUGAACAAAGAAAAUCUGGGCCAGGCAGGCAUCAAAAGAAAUAGUCUUGCGCUCAACCAGAAAGUCUGUAAUCAUUUUAAGGGUA

Variants of: B1
Test: self-cleavage, relative activity (ratio to wild type); higher = more cleavage; in vitro, sequencing; the parent is a self-cleaving ribozyme
For GUUAACGGUCAUAGGCCAUGGGAACUAGGAGCACCAUUUCGCUGCCAGUGAAGAAAUGAACAAAGAAAAUCUGGGCCAGGCAGGCAUCAAAAGAAAUAGUCUUGCGCUCACCCAGAAAGUCCGUAAUCAUUUUAAGGGUA [A22G A111C U122C], the self-cleavage was 0.01. For GUUAACGGUCAUAGGCCAUGGAACCUAGGAGCACCAUUUCGCUGCCAGUGAAGAAAUGAACAAAGAAAAUCUGGGCCAGGCAGGCAUCAAAAGAAAUAGUCUUGCGCUCAACCAGAUAGUCUGUAGUCAUUUUAAGGGUA [A24C A117U A126G], the self-cleavage was 0.66. In the case of GUUAACGGUCAUAGGCCAUGGAAACUAGGAGCACCAUUUCGCUGCCAGUGAAGAAAUGAACAAAGAAGAUCUGGGCCAGGCAGGCAUCGAAAGAAAUAGUCUUGCGCUCAACCAGAAAGUCUGUAAUCAUUUUAAGAGUA [A68G A89G G137A], the self-cleavage is reported as 0.64. With GUUAACUGUCAUAGGCCAUGGAAACUAGGAGCACCAUUUCGCUGCCAGUGAAGAGACGAACAAAGAAAAUCUGGGCCAGGCAGGCAUCAAAAGAAAUAGUCUUGCGCUCAACCAGAAAGUCUGUAAUCAUUUUAUGGGUA [G7U A55G U57C A135U] the self-cleavage was 1.3. GUUAACGGUCAUAGGCCAUGGAAACUAGGAGCACCAUUUCGCUGCCAGUGAAGAAAUGGACAAAGAAAAUCUGGGCCAGGCAGGCAUCAAAGGAAAUAGUCUUGCGCUCAGCCAGAAAGUCUGUAAUCAUUUUAAGGGUA [A59G A92G A111G] showed a self-cleavage of 0.04. GUUGACGGUCAUAGGCCAUGGAAACUAGGAGCACCAUUUCGCUGCCAGUGAAGAUAUGAGCAAAGAAAAUCUGGGCCAGGCAGGCAUCAAAAGAAAUAGUCUUGCGCUCAACCAGAAAGUCUGUAAUCAUUUUAAGGGUA [A4G A55U A60G] showed a self-cleavage of 1. GUUAACGGUCAUAGGCCAUGGAAACUAAGAGCACCAUCUCGCUGCCAGUGAAGAAAUGAGCAAAGAAAAUCUGGGCCAGGCAGGCAUCAAAAGAAAUAGUCCUGCGCUCGACCAGAAAGUCUGUAAUCAUUUUAAGGGUA [G28A U38C A60G U102C A110G] gave a self-cleavage of 0.2. Work on GUUAACGGUCAUAGGCCAUGGAAACUAGGAGCACCAUUUCGCUGCCAGUGAAGAAAUGAACAUAGAAAAUCUGGGCCAGGCAGGCAUCAAAAGAAAUAGUCAUGCGCUCAACCAGAAAGUCUGUAAUCACUUUAAGGGUA [A63U U102A U130C] yielded a self-cleavage of 0.48. GUUAUCGGUCAUAGGCCAUGGAAACUAGGAGCACCAUUUCGCUGCCAGUGAUGAAAUGAACAAAGAAGAUCUGGGCCAGGCAGGCAUCAAAAGAAAUAGUCUUGCGCUCAACCAGAAAGUCUGUAAUCAUUUUAAGGGUA [A5U A52U A68G] showed a self-cleavage of 1.07. Work on GUUAACGGUCAUAGGCCAUGGAAACUAGGGGCAUCAUUUCGCUGCCAGUGAAGAAAUGAACAAAGAAAAUCUGGGCCGGGCAGGCAUCAAAGGAAAUAGUCCUGCGCUCAACCAGAAAGUCUGUAAUCAUUUUAAGGGUA [A30G C34U A78G A92G U102C] yielded a self-cleavage of 0.38. Variant GUUAACGGUCAUAGGCCAUGGGAACUAGGAGCACCAUUUCGCUGCCAGUGAAGAAAUGAACAAAGAAAAUCUGGGCCAGGCAGGCAUCAAAAGGAAUAGUCUUGCUCUCAACCAGAAAGUCUGUAAUCAUUUUAAGGGUA [A22G A94G G106U] has a self-cleavage of 0.02. GUUAACGGUCAUAGGCCAUGGAAACUAGGAGCACCAUUUCGCUGCCAGUGAAGAGAUGAACAAAGAAAAUCCGGGCCAGGCAGGCAUCAAAAGAAAUAGUCUUGCGCUCGACCAGAAAGUCUGUAAUCACUUUAAGGGUA [A55G U72C A110G U130C] showed a self-cleavage of 0.04. Variant GUUAACGGUCAAAGGCCAUGGAAACUAGGAGCACCAUUUCGCUGCCGGUGAAGAGAUGAACAAAGAAAAUCUGGGCCAGGCAGGCAUCAAAAGAAAUAGUCUUGCGCCCAACCAGAAAGUCAGUAAUCAUUUUAAGGGUA [U12A A47G A55G U108C U122A] has a self-cleavage of 0.04. GUUAACGGUCAUAGGCCAUGGAAACUAGGAGCACCAUUUCGCUGCCAGUGAAGAAAUGAACAAAGAAAAUCCGGGCCAGGCAGGCACCAAAAGAAAUAGUCUUGCGCUCAACCAGAAAGUCUGUAGUCAUUUUAAGGGUA [U72C U87C A126G] showed a self-cleavage of 0.03. GUUAACGGUCAUAGGCCAUGGAAGCUAGGAGCACCAUUUCGCUGCCAGUGAAGAAAUGGACAAAGAAAAUCUGGGCCAGGCAGGCACCAAAAGAAAUAGUCUUGCGCUCAACCAGAAAGUCUGUAGUCAUUUUAAGGGUA [A24G A59G U87C A126G] showed a self-cleavage of 0.58. With GUUAACGGCCAUAGGCCAUGGAAACUAGGAGCACCAUCUCGCUGCCAGUGAAGAAAUGAACAAGGAAAAUCUGGGCCAGGCAGGCAUCAAAAGAAAUAGUCUUGCGCUCAACCAGAAAGUCUGUAAUCAUUUUAAGGGUA [U9C U38C A64G] the self-cleavage was 1.04. GUUAACGGUCAUAGGCCAUGGAAACUGGGAGCACCAUUUCGCUGCCAGUGAAGAAAUGAACAAAGAAAAUCUGGGCCAGGCAGGCGUCAGAGGAAAUAGUCUUGCGCUCAACCAGAAAGUCUGUAAUCAUUUUAAGGGUA [A27G A86G A90G A92G] gave a self-cleavage of 0.95. GUUAACGGCCAUAGGCCACGGACACUAGGAGCACCAUUUCGCUGCCAGUGAAGAAAUGAACAAAGAAAGUCUGGGCCAGGCAGGCAUCAAAAGAAAUAGUCUCGCGCUCAACCAGAAAGUCUGUAAUCAUUCUAAGGGUA [U9C U19C A23C A69G U103C U132C] showed a self-cleavage of 0.63. Work on GUUAACGGUCAUAGGCCAUGGAAACUAGGAGCACCAUCUCGCUGCCAGUGAAGAAAUGAACAAAGAAAAUAUGGGCCAGGCAGGCAUCAAAAGAAAUAGUCUUGCGCUCAAGCAAAAAGUCUGUAACCAUUUUAAGGGUA [U38C C71A C112G G115A U127C] yielded a self-cleavage of 0.01. For GUUAACGGUCAUAGGCCAUGGAACCUAGGAGCACCAUUUCGCUGCCAGUGAAGAGAUGAACUAAGAAAAUCUGGGCCAGGCAGGCAUCAAAAGAAUUAGUCUUGCGCUCAACCAGAAAGUCCGUAAUCACUUUAAGGGUA [A24C A55G A62U A96U U122C U130C], the self-cleavage was 0.06.
